Results: PubChem BioAssay AID651820 (National Center for Advancing Translational Sciences (NCATS), 2012)
Among all 340,000 compounds or so, about 12,000 (3.5%) were called active. The shares of active, inactive and inconclusive entries below differ from those in the screen. Calls follow the shape of the dose curve; as a rule, active = well fitted inhibition curve with a large enough effect; inconclusive = small, poorly fitted or top-dose-only effect, or another doubt; inactive = no such curve, though single readings can be large or run the other way. No potency is given beside an inconclusive call; the fits are too rough.

assay: qHTS Assay for Inhibitors of Hepatitis C Virus (HCV); conditions: Huh7.5.1 HCVcc-Cre (HCVcc is cell-culture hepatitis C virus) infection, luciferase reporter, 44 h; activity change, negative = inhibition: at 41.8 µM (top of the series) unless noted
Summary of the method: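 Infectious HCVcc-Cre (~0.5 moi) was added to cells just after compound, with cells seeded 4 h earlier at 1,000 per well. Luciferase activity after 44 h culture reported infection; substrate was incubated 15 min at room temperature before reading.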
% is scaled to controls: 0 for no effect and ±100 for the full control effect; potency is read from the fitted curve at half-maximal effect; tags tell the direction and shape of the fitted curve.

Row | SMILES | Potency | activity change, negative = inhibition
1 | COc1ccc(NC(=O)CN(C)C(=O)c2cccc(S(=O)(=O)Nc3ccccc3Cl)c2)cc1 | inconclusive [inhibitor, single point] | 
2 | COc1cc2c(C#Cc3cccnc3)c(-c3ccsc3)oc(=O)c2cc1OC | active: 6.31 µM | 
3 | Cc1ccc(N=Nc2c(N)nn3c(C)cc(C)nc23)cc1 | inconclusive [inhibitor, single point] | 
4 | COC(=O)c1ccc2c(=O)[nH]c(CSc3nc(C)cs3)nc2c1 | inactive | 
5 | N#C/C(=C\c1ccc(N2CCOCC2)o1)C(=O)Nc1ccc(O)cc1 | inconclusive [inhibitor, partial curve] | 
6 | COc1cc(C#Cc2c(-c3cncn3C)n(C)c3ccc(-c4cc(OC)c(OC)c(OC)c4)cc23)cc(OC)c1 | active: 11.2 µM | 
7 | Oc1c(N=NC(=S)Nc2ccccc2F)c2ccccc2n1Cc1ccccc1F | active: 12.6 µM | 
8 | CCc1ccc(NC(=O)[C@H](Cc2ccccc2)NC(=O)C2CCN(C(=O)[C@@H](N)CC(C)C)CC2)cc1 | inconclusive [inhibitor, single point] | 
9 | CC(=O)Nc1c(C(=O)C2CC2)oc2ccccc12 | inconclusive [inhibitor, single point] | 
10 | O=C(CSc1ncccn1)N1CCC(Cc2ccccc2)CC1 | inconclusive [inhibitor, single point] | 
11 | COC(=O)c1[nH]c2cccc(C)c2c1NC(=O)CN1CCN(c2ccccc2OC)CC1 | inactive | 
12 | CC(C)(C)OC(=O)C[C@@H]1C/C=C\C[C@@H](CC(=O)N[C@@H](CO)Cc2ccccc2)C(=O)NC[C@@H](c2ccccc2)OC1=O | inactive | 
13 | CCOC(=O)c1c(NC(=O)CNCCOC)sc2c1CCCC2 | inconclusive [inhibitor, partial curve] | 
14 | COCCn1c(-c2ccc(Cl)cc2)cnc1SCC(=O)NCCc1ccc(OC)c(OC)c1 | inconclusive [inhibitor, single point] | 
15 | O=C(O)c1cc(NC(=O)c2ccc3c(c2)C(=O)N(Cc2cccnc2)C3=O)cc(C(=O)O)c1 | inactive | 
16 | Cc1ccc(NS(=O)(=O)c2ccc(C(=O)N3CCCCCC3)cc2)cc1 | inconclusive [inhibitor, single point] | 
17 | CCOC(=O)C1=C(C)Nc2nc(C)nn2C1c1cc(OC)ccc1OC (centres undefined) | inactive | 
18 | CCOC(=O)c1sc2nc(C)cc(-c3ccccc3)c2c1N | inconclusive [inhibitor, full curve, poor fit] | 
19 | COc1ccc(OC)c(S(=O)(=O)N2CCN(C(=O)c3cc(C4CC4)nn3-c3ccccc3)CC2)c1 | inconclusive [inhibitor, single point] | 
20 | COCCn1nnnc1C(c1ccc(C(F)(F)F)cc1)N1CCOCC1 (centres undefined) | inactive | 
21 | COc1cc(-c2nnc(SCC(=O)NC3CCS(=O)(=O)C3)o2)cc(OC)c1OC (centres undefined) | inactive | 
22 | CC(C)C(=O)Nc1c(-c2ccccc2)c(=O)c2ccccc2n1C | inactive | 

Row | SMILES | Potency | activity change, negative = inhibition
23 | Cc1ccc(C(=O)NC2(C(F)(F)F)NC(=O)N(c3ccc(Cl)cc3)C2=O)cc1 (centres undefined) | inactive | 
24 | N#Cc1c(NCCCO)nc(NCc2ccccc2)c2c1CCN(Cc1ccccc1)C2 | active: 11.2 µM | 
25 | O=C(NCc1ccccc1Cl)c1ccc(S(=O)(=O)Nc2cccc(C(F)(F)F)c2)cc1 | inactive | 
26 | O=C(Nc1ccc(-c2nc3ccccc3[nH]2)cc1)c1c(F)c(F)c(F)c(F)c1F | inconclusive [inhibitor, full curve, poor fit] | 
27 | CC1CCN(c2nc(/C=C/c3ccccc3)nc3ccccc23)CC1 | inconclusive [inhibitor, partial curve, poor fit] | 
28 | O=C(c1ccccn1)C1CCCN(Cc2cn[nH]c2-c2cc3ccccc3o2)C1 (centres undefined) | inconclusive [inhibitor, single point] | 
29 | CCOc1ccc(S(=O)(=O)N2CCN(C(=O)Cc3n[nH]c(=O)c4ccccc34)CC2)cc1 | inconclusive [inhibitor, single point] | 
30 | O=C(CNc1ccccc1)NN=C1CCCC1 | inactive | 
31 | Fc1ccccc1N1CCN(CCCc2ccccc2)CC1 | inactive | 
32 | O=C(c1ccc(-c2ccc(Cl)cc2)o1)N1CCN(c2ccc([N+](=O)[O-])cc2Cl)CC1 | inconclusive [inhibitor, single point] | 
33 | COc1ccc(CC(=O)Nc2nnc(SCc3ccccc3)s2)cc1S(=O)(=O)N1CCOCC1 | inconclusive [inhibitor, single point] | 
34 | COc1ccc(N2CCOCC2)c(NC(=O)c2cc3ccccc3o2)c1 | inconclusive [inhibitor, partial curve] | 
35 | Cc1cc(C(=O)COc2ccc(C#N)cc2)c(C)n1CC1CCCO1 (centres undefined) |  | inconclusive: -35.9% [inhibitor]
36 | COC(=O)c1c(NC(=O)COC(=O)C2CCC2)sc(C)c1C | inconclusive [inhibitor, single point] | 
37 | COc1ccc(S(=O)(=O)NC(CC(=O)NCCc2ccccc2)c2ccco2)cc1 (centres undefined) | inconclusive [inhibitor, single point] | 
38 | N=c1c(C(=O)NCc2ccco2)cc2c(=O)n3ccccc3nc2n1Cc1ccccc1 | active: 3.16 µM | 
39 | CCC(=O)N(Cc1c(C)nn(-c2ccccc2)c1Cl)c1ccc(Cl)cc1 | inconclusive [inhibitor, single point] | 
40 | Cc1cccc[n+]1CCCCCCCCCC[n+]1ccccc1C | inconclusive [inhibitor, full curve] | 
41 | CCCOc1cc2c(C#N)c(N3CCCC3)nc(N)c2c(N)n1 | inconclusive [inhibitor, single point] | 
42 | COC(=O)CSc1nc2ccccc2c(=O)n1Cc1ccccc1 | inconclusive [inhibitor, full curve] | 
43 | CCOc1ccc(NC(=O)CN(C)C(=O)c2cc(C)oc2C)cc1OCC | inconclusive [inhibitor, partial curve] | 
44 | C/C(Cn1nc([N+](=O)[O-])cc1C)=N\NC(=O)c1cccc(Br)c1 | inactive | 
